Assay results: PMC11089518 (Journal of Medicinal Chemistry, 2024)
Like-named read-outs stand apart in the source and are kept apart here.

Assays:
Pv HGPRT [1] = molecular target: T1, Pv HGPRT (Plasmodium vivax, UniProt A5K7E9); assay: biochemical
Hp XGHPRT [2] = molecular target: T2, Hp XGHPRT (Helicobacter pylori, UniProt O25435); assay: biochemical
TBr HGPRT1 [3] = molecular target: T3, TBr HGPRT1 (Trypanosoma brucei brucei, UniProt Q07010); assay: biochemical
Pv HGPRT [4] = molecular target: T1, Pv HGPRT; settings: substrate, cited from earlier work
Hp XGHPRT [5] = molecular target: T2, Hp XGHPRT; settings: cited from earlier work; for Km: substrate
Mtb HGPRT = Mtb HGPRT (Mycobacterium tuberculosis, UniProt P9WHQ9); settings: cited from earlier work; for Km: substrate
Sequence of Mtb HGPRT (P9WHQ9 whole entry): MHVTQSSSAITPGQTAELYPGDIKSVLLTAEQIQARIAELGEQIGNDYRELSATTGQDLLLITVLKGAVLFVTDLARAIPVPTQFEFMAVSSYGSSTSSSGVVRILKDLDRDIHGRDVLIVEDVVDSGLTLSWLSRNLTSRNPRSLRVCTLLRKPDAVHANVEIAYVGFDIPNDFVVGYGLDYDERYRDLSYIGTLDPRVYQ

human HGPRT = human HGPRT (Homo sapiens, UniProt P00492); settings: cited from earlier work; for Km: substrate
Sequence of human HGPRT (P00492 whole entry): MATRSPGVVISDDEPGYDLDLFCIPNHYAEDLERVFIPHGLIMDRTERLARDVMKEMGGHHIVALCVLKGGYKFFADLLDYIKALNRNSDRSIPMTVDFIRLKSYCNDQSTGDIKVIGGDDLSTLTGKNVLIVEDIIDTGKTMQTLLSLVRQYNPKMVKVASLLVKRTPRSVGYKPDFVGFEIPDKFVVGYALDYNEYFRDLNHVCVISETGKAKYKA

Pf HGXPRT = Pf HGXPRT (Plasmodium falciparum, UniProt P20035); settings: cited from earlier work; for Km: substrate
Sequence of Pf HGXPRT (P20035 whole entry): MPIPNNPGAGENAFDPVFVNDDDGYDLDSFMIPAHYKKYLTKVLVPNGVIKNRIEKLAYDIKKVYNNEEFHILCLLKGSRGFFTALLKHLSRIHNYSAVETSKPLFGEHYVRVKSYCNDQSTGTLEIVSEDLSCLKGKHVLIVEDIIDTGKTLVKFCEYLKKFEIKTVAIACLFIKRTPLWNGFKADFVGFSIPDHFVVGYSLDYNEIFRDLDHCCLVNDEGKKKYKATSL

Ec XGPRT = Ec XGPRT (Escherichia coli, UniProt P0A9M5); settings: cited from earlier work
Sequence of Ec XGPRT (P0A9M5 whole entry): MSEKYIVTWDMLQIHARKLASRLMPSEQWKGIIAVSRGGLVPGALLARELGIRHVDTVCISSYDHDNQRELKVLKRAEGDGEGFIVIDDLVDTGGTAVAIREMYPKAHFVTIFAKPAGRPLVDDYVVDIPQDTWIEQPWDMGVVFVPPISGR

TBr HGPRT1 [6] = molecular target: T3, TBr HGPRT1; settings: read-out: Km (PRPP); substrate; cited from earlier work
H/G/X/PRTs = settings: read-out: Km for PRPP; the other six enzymes (without MtbHGPRT); ref as in Table 1; cited from earlier work
[7] = read-out: Ki GMP, product of the reaction

T1 sequence (A5K7E9 1-233): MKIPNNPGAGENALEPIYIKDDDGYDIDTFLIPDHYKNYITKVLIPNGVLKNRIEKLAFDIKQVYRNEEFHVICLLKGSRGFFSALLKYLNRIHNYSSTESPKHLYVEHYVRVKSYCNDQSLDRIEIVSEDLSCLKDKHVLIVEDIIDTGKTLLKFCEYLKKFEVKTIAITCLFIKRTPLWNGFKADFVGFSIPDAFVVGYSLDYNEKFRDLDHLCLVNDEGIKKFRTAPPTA
T3 sequence (Q07010 whole entry): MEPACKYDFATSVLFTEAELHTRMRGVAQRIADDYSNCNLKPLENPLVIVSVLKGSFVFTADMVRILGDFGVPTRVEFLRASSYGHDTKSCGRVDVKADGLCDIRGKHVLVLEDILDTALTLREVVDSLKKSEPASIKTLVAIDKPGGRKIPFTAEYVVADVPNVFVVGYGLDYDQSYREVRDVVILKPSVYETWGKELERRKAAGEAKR

Nc1nc2c(ncn2[C@H]2C[C@H](COCCP(=O)(O)O)N(C(=O)CCP(=O)(O)O)C2)c(=O)[nH]1 [Compound 2, [2R,4S]-4-Guanin-9-yl-2-(2-phosphonoethoxymethyl)-1-N-(3-phosphonopropionyl)pyrrolidine]
Ki (Pv HGPRT [1]): > 10 µM
Ki (Hp XGHPRT [2]): > 10 µM
Ki (TBr HGPRT1 [3]): > 10 µM

Nc1nc2c(ncn2[C@@H]2C[C@H](COCCP(=O)(O)O)N(C(=O)CCP(=O)(O)O)C2)c(=O)[nH]1 [Compound 3, [2R,4R]-4-Guanin-9-yl-2-(2-phosphonoethoxymethyl)-1-N-(3-phosphonopropionyl)pyrrolidine]
Ki (TBr HGPRT1 [3]): 0.2 ± 0.06 µM

Nc1nc2nc[nH]c2c(=O)[nH]1 [Guanine, guanine]
Km (Pv HGPRT [4]; read-out: Km Guanine): 1.9 ± 0.4 µM
Km (Hp XGHPRT [5]; read-out: Km Guanine): 3.1 ± 0.2 µM
Km (Mtb HGPRT; read-out: Km Guanine): 4.4 ± 0.4 µM
Km (human HGPRT; read-out: Km Guanine): 1.9 ± 0.4 µM
Km (Pf HGXPRT; read-out: Km Guanine): 0.83 ± 0.5 µM

CC(C)OP(=O)(CCCn1ccnc1-c1c[nH]c2c(=O)[nH]cnc12)OC(C)C [diisopropyl (3-(2-(4-oxo-4,5-dihydro-3H-pyrrolo[3,2-d]pyrimidin-7-yl)-1H-imidazol-1-yl)propyl)phosphonate]
Ki (human HGPRT): > 10 µM

Nc1nc2c(ncn2[C@@H]2O[C@H](COP(=O)(O)O)[C@@H](O)[C@H]2O)c(=O)[nH]1 [GMP]
Ki (Ec XGPRT; [7]): 4.5 ± 0.3 µM
Ki (Hp XGHPRT [5]; [7]): 23 ± 4 µM
Ki (Mtb HGPRT; [7]): 20 ± 3 µM

O=C(CCP(=O)(O)O)N1C[C@@H](n2cnc3c(O)ncnc32)[C@H](OC[C@@H](O)P(=O)(O)O)C1 [[3R,4R]-4-hypoxanthin-9-yl-3-((S)-2-hydroxy-2-phosphonoethyl)oxy-1-N-(phosphonopropionyl)pyrrolidine]
Ki (Pf HGXPRT): 0.002 ± 0.0005 µM

O=P(O)(O)OC[C@H]1O[C@H](OP(=O)(O)OP(=O)(O)O)[C@H](O)[C@@H]1O [PRPP, 5-phospho-α-D-ribosyl-1-pyrophosphate]
Km (Ec XGPRT; read-out: Km (PRPP), substrate): 64 ± 3 µM
Km (Pv HGPRT [4]; read-out: Km (PRPP)): 73 ± 3 µM
Km (TBr HGPRT1 [6]): 31 ± 3 µM
Km (Hp XGHPRT [5]; read-out: Km (PRPP)): 27 ± 4 µM
Km (Mtb HGPRT; read-out: Km (PRPP)): 465 ± 15 µM
Km (human HGPRT; read-out: Km (PRPP)): 65 ± 5 µM
Km (H/G/X/PRTs): 27 to 73 µM
Km (Pf HGXPRT; read-out: Km (PRPP)): 69 ± 4 µM
